These results are taken from the supplement of paper PMC11417369.

± gives the standard deviation of the averaged measurements. Some of the results follow.

The test system of the assay is PfAP2-G AP2 domain (GST-tagged). Nature of the assay: gcPBM binding intensity (ln(normalized median fluorescence intensity)); higher = stronger DNA binding. Put shortly:
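Each value is the highest Masliner-normalised natural-log median intensity across replicate spots of either orientation of a probe. The probes were primer-extended double-stranded 36-bp intergenic genomic sequences on an Agilent 4 × 180k array, alongside negative controls, exposed for 1 h to GST-tagged P. falciparum DNA-binding domains expressed in E. coli. Bound protein was picked up with Alexa488 anti-GST antibody and scanned at 488 nm.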
Take “GAAGAAAAATAAAAAGTGCAAAAAAAGTAAAAATTT [GTGCAC_site9897]”: the “gcPBM binding intensity (ln)” value was found to be 10.11 ± 0.078.

In the case of “ATAATAATTAACCTATGTACATAGGAAAGTCATAAA [XGTACX_site4387]”, the “gcPBM binding intensity (ln)” value stood at 10.9 ± 0.47.

Regarding “AAAAAAAAAAAACACACACACACATACACATACATA [CACACA_site2858]”, the “gcPBM binding intensity (ln)” value came out at 10.09 ± 0.099.

For “TCCATATATGCCTTATGTACATATACCAAATTAACC [XGTACX_site6513]”, the “gcPBM binding intensity (ln)” value amounted to 11.3 ± 0.75.

On to “TTTGGCTAGTTAGGCCGTACATGTAAATAATATATA [XGTACX_site1138]”, for which the “gcPBM binding intensity (ln)” value amounted to 10.9 ± 0.64.

Consider “GAAGTTTTTTAAAGATGTACTTTTTAAAAATAATCT [XGTACX_site263]”, for which the “gcPBM binding intensity (ln)” value is 11.5 ± 0.93.

Turning to “AATGAATGTAAGAAAATACACACTAGTATAGTAACA [CACACA_site1955]”, the “gcPBM binding intensity (ln)” value was determined as 10.29 ± 0.092.

Consider “TTGGAAAAAGTGAAATGTACATATATATTTATTATT [XGTACX_site6946]”, for which the “gcPBM binding intensity (ln)” value is 11 ± 0.36.

As for AAAGGATTTATACTAGTGCAAAAATATAAAAATATA, the “gcPBM binding intensity (ln)” value amounted to 9.87 ± 0.085.

For “AATAATAAAGTGAACACACACATATAACATCTATAT [CACACA_site7868]”, the “gcPBM binding intensity (ln)” value was found to be 10.04 ± 0.099.

For the sequence “TTTGTTTTTAATTTCGCACACACCTTGTGGAAAAAA [CACACA_site577]”, the “gcPBM binding intensity (ln)” value is 10.3 ± 0.4.

As for “AAATATTTTATACTTGCACACAAAATATATTAAAAT [CACACA_site8606]”, the “gcPBM binding intensity (ln)” value was found to be 10.2 ± 0.2.

For the sequence “AATATAAATACTCCTACACACATATATATATATATA [CACACA_site3010]”, the “gcPBM binding intensity (ln)” value worked out at 10.4 ± 0.36.

Turning to “GACACAAAAAAATAATAATAATAATAATAATAAATA [XGTACX_negctrl_site145]”, the “gcPBM binding intensity (ln)” value was 9.66 ± 0.12.

With “ACAAATACAAAAAAAGGTACACACATAATATATTTA [XGTACX_site5515]”, the “gcPBM binding intensity (ln)” value was found to be 11.4 ± 1.

“TGTGTAAGATCTTGGATGATGATAAGAATCTACTAG [CACACA_negctrl_site1167]”: the “gcPBM binding intensity (ln)” value stood at 9.7 ± 0.33.

For “TTATAAGATTTATGTACACACATATACTCACCTCTA [CACACA_site729]”, the “gcPBM binding intensity (ln)” value is 11.5 ± 0.93.

As to “CCTTAAAATAAGATATGTACGCAAAGGAAAACAAAG [XGTACX_site6057]”, the “gcPBM binding intensity (ln)” value was determined as 11.5 ± 0.85.

As to “TTCTTATAAATATACACACACAAAATATCTACAATG [CACACA_site6487]”, the “gcPBM binding intensity (ln)” value amounted to 10.11 ± 0.078.

In the case of “AAGTTGAAATAATGTGCACACATTTTTTTTTTTTTT [CACACA_site3368]”, the “gcPBM binding intensity (ln)” value is 10.5 ± 0.3.

Regarding “CCCTTAATATAAAGCACACATATATATAATATATAT [CACACA_site4439]”, the “gcPBM binding intensity (ln)” value came out at 10.1 ± 0.23.

Regarding “ATTTTTATTCAGTTCACACACGCTTTAATATTATAT [CACACA_site3465]”, the “gcPBM binding intensity (ln)” value is 10.21 ± 0.085.

“ATATATATTTAACAATGTACTTATTCAGAGAATAAT [XGTACX_site574]”: the “gcPBM binding intensity (ln)” value worked out at 11.1 ± 0.83.

Consider “AAAATATTTTTATAATGTACATATAGTTGTATTTGT [XGTACX_site8724]”, for which the “gcPBM binding intensity (ln)” value is 11.2 ± 0.53.

As for “ATTAATAAAAAATTTTAAAAAATAAATAAAATAAAA [TGCATGCA_negctrl_site113]”, the “gcPBM binding intensity (ln)” value is 9.61 ± 0.071.

Regarding “ATAATAAATAAAATAACACACATATATAAATATATA [CACACA_site170]”, the “gcPBM binding intensity (ln)” value amounted to 9.66 ± 0.042.

As for “CATATTTGTGGACACACACACATATTTATATATATA [CACACA_site5887]”, the “gcPBM binding intensity (ln)” value was 11.5 ± 0.95.

With “ATAGTTACACAATGGTGTACAAGTCAATATATTTCT [XGTACX_site4614]”, the “gcPBM binding intensity (ln)” value was found to be 11.3 ± 0.81.

As to “TACAAAAAAATAAAAAAAATTAAATAAATAAATATA [CACACA_negctrl_site45]”, the “gcPBM binding intensity (ln)” value came to 9.35 ± 0.15.

Take “ATTATGTGTCCACATGTAAGCTATCTTACTTATATA [CACACA_negctrl_site1227]”: the “gcPBM binding intensity (ln)” value is 11.2 ± 0.93.

Turning to ATAATAAAATAACTAGTGCATATTCAAAGGATTCAG, the “gcPBM binding intensity (ln)” value came out at 10.03 ± 0.014.

For the sequence “TATCCTTATATTTGCACACACACACTAGAAAATGAA [CACACA_site4714]”, the “gcPBM binding intensity (ln)” value is 10.3 ± 0.33.

As to “AAAAAAAAAAAAAAAAAAAACGAAAAACATCAAAGA [TGCATGCA_negctrl_site78]”, the “gcPBM binding intensity (ln)” value came to 10.8 ± 0.49.

With “ACTAAAAAATATATATGTACATAATAATATATTATT [XGTACX_site1260]”, the “gcPBM binding intensity (ln)” value is 11.2 ± 0.57.

In the case of “ATTTATACTTATGTATGTACATATATACATATGTAT [XGTACX_site3979]”, the “gcPBM binding intensity (ln)” value is 11.1 ± 0.61.

Turning to “ATATATATTATATATAGTACTTTTTTGCGCAAATAT [XGTACX_site6849]”, the “gcPBM binding intensity (ln)” value turned out to be 11.1 ± 0.61.

For the sequence “AACACATGCTTGGTCACACACGTATGCATATTTAAA [CACACA_site5206]”, the “gcPBM binding intensity (ln)” value is 10.8 ± 0.35.

With “AATATGTTATAAATATGTTATAAATAATAAATAAAT [GTGCAC_negctrl_site135]”, the “gcPBM binding intensity (ln)” value was 10 ± 0.11.

For “ATATATATATATAATTGTACATATAATATAATATTA [XGTACX_site5216]”, the “gcPBM binding intensity (ln)” value was 11 ± 0.55.

With “ATTTTTTTTTTTTTATGTACATATAGGTGCAAATCA [XGTACX_site6748]”, the “gcPBM binding intensity (ln)” value came to 11.4 ± 0.83.

In the case of “ACAATGTCATTTGCTAGTACGCATATTGGTTGTAAA [XGTACX_site8924]”, the “gcPBM binding intensity (ln)” value stood at 11.4 ± 0.95.

Take “TATTTTTTTTTTTTTTTTTTTTTAAAACATATCAAT [CACACA_negctrl_site925]”: the “gcPBM binding intensity (ln)” value is 9.77 ± 0.18.

On to “GAAATTTGTTATTGCACACAAATTTTTCTTTTTTTA [CACACA_site2339]”, for which the “gcPBM binding intensity (ln)” value stood at 9.93 ± 0.16.

For the sequence “TAATTATATATATACACACACATACAGACAAATAAA [CACACA_site3412]”, the “gcPBM binding intensity (ln)” value turned out to be 10.4 ± 0.29.
